# According to the supplement of paper PMC3334620:
# In all, about 33,000 sequences were measured (“E-score (-0.5 to 0.5)”: median about -0.054, highest 2% from about 0.35 on). Some of the results follow.
# Target: T1, Stb5 (UniProt P38699)
# T1 sequence: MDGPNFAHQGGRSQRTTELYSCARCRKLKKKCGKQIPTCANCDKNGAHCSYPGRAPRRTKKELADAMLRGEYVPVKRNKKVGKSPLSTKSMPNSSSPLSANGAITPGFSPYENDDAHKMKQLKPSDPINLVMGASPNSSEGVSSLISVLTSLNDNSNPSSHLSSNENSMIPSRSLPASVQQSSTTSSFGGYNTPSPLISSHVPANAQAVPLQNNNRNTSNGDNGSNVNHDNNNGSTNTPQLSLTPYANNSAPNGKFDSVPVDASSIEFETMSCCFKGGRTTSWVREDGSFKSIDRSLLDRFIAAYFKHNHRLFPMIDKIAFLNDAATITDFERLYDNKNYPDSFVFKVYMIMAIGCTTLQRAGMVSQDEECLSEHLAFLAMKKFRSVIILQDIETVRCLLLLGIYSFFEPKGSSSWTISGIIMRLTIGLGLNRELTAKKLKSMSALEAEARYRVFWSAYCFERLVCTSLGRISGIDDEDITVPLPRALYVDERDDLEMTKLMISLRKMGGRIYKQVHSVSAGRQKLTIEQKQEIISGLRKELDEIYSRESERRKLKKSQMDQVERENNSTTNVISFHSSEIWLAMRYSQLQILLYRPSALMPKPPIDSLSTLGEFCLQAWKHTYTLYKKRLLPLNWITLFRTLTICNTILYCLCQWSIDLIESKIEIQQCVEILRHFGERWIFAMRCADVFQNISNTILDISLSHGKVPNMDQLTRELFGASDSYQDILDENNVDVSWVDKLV
# Experiment: PBM E-score (8-mer binding enrichment) (E-score (-0.5 to 0.5)); higher = stronger / more preferred TF binding; most listed sequences are background and not binding sites
# Conditions: protein concentration: 200 nM; construct: GST-full length
# How it was run: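 Bound GST-tagged yeast transcription factors, applied at about 100-200 nM to double-stranded universal all-10-mer Agilent arrays, were detected with fluorescent anti-GST. Scans were normalised with masliner. A modified Wilcoxon-Mann-Whitney statistic, the E-score, was assigned to each ungapped eight-base word pooled with its reverse complement by the Universal PBM Analysis Suite.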
row,Sequence,PBM E-score
1,ATATAGTG,0.0801
2,ACTCGCAC,-0.123
3,ACCGCACG,0.153
4,AATGTTCC,0.107
5,CCCGTCGG,0.435
6,CAATTGCG,-0.0919
7,GTTCACTA,-0.0296
8,GCCCCAAC,-0.0501
9,AGGTCATC,0.0432
10,GCGTTCAA,-0.139
11,TCAAGTAA,-0.0626
12,CTTAAATC,0.173
13,ATAAGCCG,0.0226
14,CTCGTTCA,-0.0257
15,CCTAAAAA,0.0102
16,TGGCAAAA,-0.0799
17,CCAGTTAC,-0.187
18,ATCCCAGG,-0.00529
19,ACGAAGTG,-0.147
20,ATTTGTGG,0.00692
21,ACAATTAT,-0.0661
22,ACCAGACT,-0.226
23,AAGATTAT,0.101
24,AATTTAGA,-0.101
25,GATTATTA,0.0913

row,Sequence,PBM E-score
1,TAATACAA,-0.0433
2,CCGGGTCC,0.183
3,GTTGCAGA,-0.115
4,TTCTACAA,-0.107
5,TCCCTTAA,-0.254
6,TAGGTATA,-0.039
7,GAATGGAC,-0.112
8,CCGTATTA,0.242
9,AAATATGC,-0.0724
10,AAATCCCA,-0.156
11,CCAACCGC,0.0525
12,TCCGCCCA,0.308
13,GGTGGCTA,0.0123
14,GGATCTGA,-0.0127
15,ATTCGTCA,-0.181
16,ACCCTGAC,-0.0664
17,AGTATCTA,-0.212
18,AGTGTGCG,-0.159
19,CCTTAGGC,-0.0302
20,ACGATTCC,0.0287
21,ATGGTGTC,-0.0208
22,ATGGTATC,-0.0203
23,GTTATTGA,-0.106
24,CAATGGGA,0.0877
25,CATAGGCA,-0.17

row,Sequence,PBM E-score
1,CGCCTAGA,-0.0259
2,GGGAAGTA,0.0165
3,GGTCCTAA,0.3
4,TCCCCGAA,0.266
5,ACGACTCA,-0.24
6,CAATCGCA,-0.0763
7,CGCCCACG,0.134
8,CCGCTGTA,0.295
9,GACGCATC,-0.126
10,GTCACTTA,-0.02
11,TTAATTAA,-0.00647
12,ATGGGCCG,0.16
13,GCAGTCGC,-0.122
14,GGCCGTGA,0.101
15,ATAGGGGA,-0.166
16,ATATGCGC,0.0554
17,ATATCATA,0.0356
18,GACGTTGC,-0.0822
19,ATGAGGCA,-0.24
20,CTTATAGC,0.00833
21,CATCCAAC,-0.126
22,AGGTACCC,-0.294
23,AAGTCCCC,-0.0331
24,CATAGTAG,-0.17
25,CTATGAGC,-0.125

row,Sequence,PBM E-score
1,TAGCTAGA,-0.148
2,AAGTACGG,0.165
3,AACCCGGG,0.262
4,GAGGGTGA,-0.139
5,AATGCCGC,0.448
6,CGGCACCG,0.342
7,GAACAACC,-0.0126
8,CACGACTC,-0.137
9,CAAACTTG,0.0371
10,CAATGCTC,-0.22
11,ATTGTAAG,-0.108
12,ACTACAGG,-0.0347
13,CAGAGGGC,0.0204
14,ACTCGGAC,0.194
15,ATGACGAA,-0.0403
16,CTACCAGC,-0.113
17,ACTAAGCT,-0.175
18,CACCACCG,0.21
19,AGACTGCC,-0.0891
20,AGCCAGTC,-0.14
21,CCGTGGGC,0.248
22,AGAAGCGG,0.316
23,AGTATGAA,-0.0275
24,AGTTTGAG,0.0948
25,AGAATGAA,-0.181

row,Sequence,PBM E-score
1,TAGTTGGA,0.104
2,AGACGGTA,0.238
3,TCGGCTAA,-0.095
4,AACCCGTT,0.213
5,GCTCAGAC,-0.0986
6,ACTCGAGT,-0.116
7,CACCCAGC,0.051
8,AAAACGGG,0.29
9,AGGCAGCC,-0.25
10,AATTGGGG,-0.101
11,GAAGCTCA,-0.22
12,CGCCTCCC,-0.135
13,GAAGAGCA,-0.204
14,ACGCGCAC,-0.102
15,CTTGCTTA,-0.245
16,ATCCACCA,-0.288
17,CAAGAGCA,-0.165
18,CCACGCAA,-0.0134
19,GAAAAGGC,0.0848
20,AACCCGGT,0.29
21,ATATGCCA,-0.0131
22,TACACCGA,0.414
23,TCAACAAA,0.0749
24,GTGCCTGA,-0.0161
25,AACACATA,-0.222

row,Sequence,PBM E-score
1,ACACGGTA,0.144
2,ACAACGGT,0.28
3,ATATGGGC,0.0563
4,TAGCTGCA,-0.191
5,AAACGATG,-0.0501
6,CCACCGAC,0.346
7,AATCCTGC,-0.16
8,TACAGATA,0.048
9,AAAGAGAT,-0.225
10,ATTCGTAA,-0.0579
11,GATACCGC,0.35
12,ATCATGTA,-0.236
13,CGTCACAA,0.109
14,CGAGACCA,-0.245
15,CAGTTAGA,-0.165
16,AAGAACTC,-0.167
17,GCCTGAGA,-0.113
18,ATGTCATG,-0.0574
19,TATACACA,-0.0461
20,GCAAGCAC,-0.205
21,ATTCTATA,0.00785
22,TCCTATCA,0.129
23,ATACGCTG,-0.0604
24,CTAAGGTC,-0.0598
25,GGACGAGA,-0.0868

row,Sequence,PBM E-score
1,CATGGGCG,0.114
2,CTACAAGC,-0.0669
3,ACAAAATG,-0.0269
4,GGTAGCGA,-0.144
5,CTCGTTCC,0.0214
6,CGGATACA,0.251
7,AATTGACG,0.0476
8,CCTTAACC,-0.128
9,CCAGAGCA,-0.109
10,ACGATTAC,-0.161
11,GATTAGGC,-0.0563
12,CATGGCCA,-0.147
13,CAGTACCA,-0.218
14,AGATCCTG,-0.271
15,CAGTGGAA,-0.144
16,CCGCATCA,0.155
17,GTTACGCA,-0.185
18,ATGACACA,-0.0801
19,CTTCCTCA,-0.135
20,AATTGATA,-0.154
21,CCCCTCTC,-0.226
22,ATGATCGC,0.0541
